# Source: PubChem BioAssay AID1768 (National Center for Advancing Translational Sciences (NCATS), 2009)
# Several values for one entry are separate records, joined by “and”; a condition that tells them apart may be missing. Identical values can stand only once. The whole screen tested about 270,000 compounds, of which about 620 (0.23%) were called active. The shares of active, inactive and inconclusive entries below differ from those in the screen. Calls follow the shape of the dose curve; as a rule, active = well fitted inhibition curve with a large enough effect in the polarisation, with a control signal flat (not every such curve was filed as active); inconclusive = small, poorly fitted or top-dose-only effect, or effect the other way, or a change in a side signal; inactive = no such curve, though single readings can be large or run the other way; the % refers to the polarisation. Potencies of inconclusive entries are doubtful fits and often do not repeat. A note “side channel” means that the fit belongs to a control or component signal, not to the main read-out.
# Molecular target: Menin (Homo sapiens) (UniProt O00255)
# Chain of UniProt O00255 (O00255 whole entry, looked up): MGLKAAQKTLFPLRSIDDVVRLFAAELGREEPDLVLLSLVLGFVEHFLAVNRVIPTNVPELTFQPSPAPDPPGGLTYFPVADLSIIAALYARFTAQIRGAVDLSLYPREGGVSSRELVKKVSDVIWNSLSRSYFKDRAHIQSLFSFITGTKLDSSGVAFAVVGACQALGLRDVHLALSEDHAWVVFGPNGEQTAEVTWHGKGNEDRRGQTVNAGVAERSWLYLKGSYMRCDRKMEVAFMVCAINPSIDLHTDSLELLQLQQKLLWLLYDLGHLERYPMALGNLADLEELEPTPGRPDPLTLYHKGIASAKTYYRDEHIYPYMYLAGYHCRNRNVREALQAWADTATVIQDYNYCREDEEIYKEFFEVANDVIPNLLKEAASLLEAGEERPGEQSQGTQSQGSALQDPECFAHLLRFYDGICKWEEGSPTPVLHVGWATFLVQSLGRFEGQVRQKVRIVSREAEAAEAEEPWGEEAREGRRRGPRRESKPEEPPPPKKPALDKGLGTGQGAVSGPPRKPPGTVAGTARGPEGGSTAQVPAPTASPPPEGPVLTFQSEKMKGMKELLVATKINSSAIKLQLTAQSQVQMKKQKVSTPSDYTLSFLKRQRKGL
# Assay: qHTS Assay for Inhibitors Targeting the Menin-MLL Interaction in MLL Related Leukemias: Competition With Texas Red Labeled MLL-derived Mutant Peptide
# Conditions: fluorescence polarization; series mostly up to 61.6 µM
# Potency is read from the fitted curve at half-maximal effect; tags tell the direction and shape of the fitted curve or compound fluorescence and quenching.
row,Compound,Potency
1,Cc1ccsc1C(=O)C1CCCN(Cc2cnc(N(C)C)s2)C1 (stereo not drawn),"inconclusive: 10 µM [fluorescent, side channel, partial curve]"
2,Cc1ccc(Cn2ccc(NC(=O)c3cc(-c4ccc(Cl)cc4)on3)n2)cc1,"inconclusive: 10 µM [inhibitor, partial curve]"
3,COC(=O)C(c1ccccc1)N1CCCCCC1 (stereo not drawn),"inconclusive: 39.8 µM [quencher, side channel, single point]"
4,CCc1ccc(N2C(=O)NC(=O)/C(=C\c3cc(C)n(-c4cc(C(=O)O)cc(C(=O)O)c4)c3C)C2=O)cc1,inactive
5,COc1ccc2c(c1OC)CN1CCc3cc4c(cc3[C@H]1C2)OCO4,inactive
6,O=C(N/N=C\C1C(=O)NC(=S)N(c2ccccc2)C1=O)c1ccc(O)cc1 (stereo not drawn),"inconclusive: 28.2 µM [quencher, side channel, single point]"
7,Cc1ccc(C(=O)N[C@@H](C)CN2C3=NC[C@@H](Cc4ccccc4)N3C[C@H]2Cc2ccc(O)cc2)cc1Br,"inconclusive: 39.8 µM [inhibitor, partial curve, poor fit]"
8,COc1cc(C)c(CNCCc2c[nH]c3ccccc23)cc1C,"inconclusive: 10 µM [inhibitor, partial curve]"
9,CC(C)c1ccc2[nH]c(O)c(N=NC(=O)c3cccc(S(=O)(=O)Nc4ccc(Cl)cc4)c3)c2c1,"inconclusive: 6.31 µM [quencher, side channel, partial curve]"
10,O=C(c1ccc(F)cc1)N1CCC(N2CCCCCC2)CC1,"inconclusive: 2.82 µM [inhibitor, full curve, poor fit]"
11,Cc1cc(/C=C2\C(=O)NC(=O)N(c3ccc(F)cc3)C2=O)c(C)n1-c1ccc(C(=O)O)cc1,inactive
12,Oc1cccc(/C=N/NP(=S)(c2ccccc2)c2ccccc2)c1,"inconclusive: 20 µM [quencher, side channel, partial curve]"
13,CCOCCc1c(O)[nH]c(=S)[nH]c1=O,"inconclusive: 31.6 µM [inhibitor, single point]"
14,O=Cc1c(C(=O)O)n(Cc2ccc(F)cc2Cl)c2ccccc12,inactive
15,CC(=O)[C@H]1CC[C@H]2C3CC[C@H]4C[C@](C)(O)CC[C@]4(C)C3CC[C@]12C (stereo partly drawn),inactive
16,CCN(CC)c1ccc(CNCCc2ccccc2F)cc1,"inconclusive: 7.94 µM [fluorescent, side channel, partial curve]"
17,Cc1cc(/C=C2\C(=O)NC(=O)N(Cc3ccco3)C2=O)c(C)n1-c1ccc(O)cc1,"inconclusive: 20 µM [quencher, side channel, partial curve]"
18,C[n+]1c2ccccc2nc2ccc(NCCO)cc21,"inconclusive: 8.91 µM [fluorescent, side channel, full curve]"
19,COc1cc(/C=C/c2nc3ccccc3c(=O)n2-c2ccccc2O)ccc1O,"inconclusive: 28.2 µM [quencher, side channel, single point]"
20,C/C(=C\c1ccc(N(C)C)cc1)[N+](=O)[O-],"inconclusive: 8.91 µM [inhibitor, single point]"

row,Compound,Potency
1,C=C1N2CCC(CC2)C1(O)c1ccc(C)cc1 (stereo not drawn),inactive
2,N#CCCn1cc(C(=O)Nc2ccc(F)cc2)c(-c2ccc([N+](=O)[O-])cc2)n1,"inconclusive: 11.2 µM [quencher, side channel, partial curve]"
3,CN(N=O)c1cc(O)ccc1O,"inconclusive: 28.2 µM [quencher, side channel, partial curve, poor fit]"
4,CC(C)(C)OC(=O)N1CC(O)CC1C(=O)OCC(=O)c1ccc(-c2ccccc2)cc1 (stereo not drawn),"inconclusive: 17.8 µM [fluorescent, side channel, partial curve]"
5,CC(C)(C)n1cc(C(=O)c2ccccc2)cc1-c1ccccc1,"inconclusive: 10 µM [fluorescent, side channel, partial curve]"
6,NC(Cc1cc(O)c(O)cc1O)C(=O)O (stereo not drawn),"inconclusive: 14.1 µM [quencher, side channel, partial curve]"
7,CC1(C)OC(c2ccccc2)=C/C(=C/C=C2C(=O)NC(=S)NC2=O)O1,"inconclusive: 20 µM [fluorescent, side channel, partial curve]"
8,O=c1oc2ccccc2c(O)c1C(c1ccccc1O)c1c(O)c2ccccc2oc1=O,"inconclusive: 14.1 µM [quencher, side channel, partial curve]"
9,c1csc(C2(N3CCCCC3)CCCCC2)c1,"inconclusive: 39.8 µM [fluorescent, partial curve]"
10,COc1ccc(OC)c(N2C(=O)/C(=C/c3ccco3)C(=O)NC2=S)c1,"inconclusive: 3.55 µM [quencher, side channel, full curve]"
11,FC(F)(F)c1cccc(C2NCc3ccccc3-n3cccc32)c1 (stereo not drawn),"inconclusive: 39.8 µM [fluorescent, side channel, single point]"
12,CCOc1cc(C=C2C(=O)NC(=O)NC2=O)cc([N+](=O)[O-])c1O,"inconclusive: 39.8 µM [quencher, single point]"
13,Brc1c(Br)c(Br)c2n[nH]nc2c1Br,"inconclusive: 22.4 µM [quencher, side channel, partial curve] and inconclusive: 22.4 µM [quencher, side channel, single point]"
14,Cc1ccc(OCCOc2cccc(C=C3C(=O)NC(=O)NC3=O)c2)c(C)c1,"inconclusive: 28.2 µM [quencher, side channel, partial curve]"
15,CCCCCCn1c(N)c(C(=O)NCCN2CCOCC2)c2nc3ccccc3nc21,inactive
16,O=C(COc1ccccc1)N1CCN(C/C=C/c2ccccc2)CC1,"inconclusive: 22.4 µM [fluorescent, side channel, single point]"
17,COc1ccc(-n2c(O)c(/C=C3\C=Nc4ccc(Br)cc43)c(=O)[nH]c2=O)c(OC)c1,"inconclusive: 10 µM [quencher, side channel, partial curve]"
18,COC(=O)N(c1ccccc1)P1(=S)OCCO1,inactive
19,CC(C)n1cnc2c(C(=O)N[C@H]3CN4CCC3CC4)cc(Cl)cc21,inactive
20,O=P(Oc1ccccc1)(Oc1ccccc1)C(Nc1ccccc1)c1ccccc1 (stereo not drawn),"inconclusive: 3.16 µM [fluorescent, side channel, single point]"

row,Compound,Potency
1,CCOc1cc2c(cc1OCC)-n1cccc1C(c1cccc(F)c1)NC2 (stereo not drawn),"inconclusive: 15.8 µM [fluorescent, side channel, partial curve]"
2,CC(=O)N1CCN(c2ccc(N=Cc3c(O)n(Cc4ccccc4)c(=O)[nH]c3=O)cc2)CC1,"inconclusive: 25.1 µM [inhibitor, single point]"
3,Cc1cccc(N2C(=O)NC(=O)/C(=C\c3cnc(-c4ccccc4)nc3)C2=O)c1,"inconclusive: 39.8 µM [quencher, side channel, single point]"
4,O=C1/C(=C\c2cc3c(cc2Br)OCO3)N2CCC1CC2,"inconclusive: 39.8 µM [inhibitor, single point]"
5,O=C(Cc1ccccc1)N1CCN(Cc2ccccc2Cl)CC1,"inconclusive: 28.2 µM [inhibitor, single point]"
6,O=c1[nH]c(=O)n(Cc2ccc(F)cc2)c(O)c1C=NCc1cccnc1,inactive
7,CCOP(=O)(OCC)c1nc(-c2cccc3ccccc23)oc1NCCc1ccc(OC)cc1,"inconclusive: 1.78 µM [fluorescent, side channel, partial curve]"
8,O=C(Nc1ccc2nc(-c3cccs3)c(-c3cccs3)nc2c1)NC1CC1,"inconclusive: 10 µM [quencher, side channel, partial curve]"
9,O=C1NC(=S)NC(=O)C1=Cc1cccn1-c1ccc(O)cc1,"inconclusive: 35.5 µM [quencher, side channel, single point]"
10,CN1C(=O)NC(=O)C(C)(C2=CCCCC2)C1=O (stereo not drawn),"inconclusive: 2.82 µM [inhibitor, partial curve, poor fit]"
11,COc1cc2c(c(OC)c1)C(=O)OC(C)CCCC(=O)CCCCC2 (stereo not drawn),"inconclusive: 3.16 µM [inhibitor, partial curve]"
12,O=C(c1cc(C(=O)NCc2ccccc2)c(=O)n(Cc2ccccc2)c1)c1cc(Br)ccc1O,"inconclusive: 14.1 µM [inhibitor, single point]"
13,C=CCN1C(=O)CSc2ccc(C(=O)N3CCC4(CC3)OCCO4)cc21,"inconclusive: 39.8 µM [inhibitor, single point]"
14,NC(N)=N/N=C/c1ccc(N(c2ccccc2)c2ccccc2)cc1,"inconclusive: 3.55 µM [fluorescent, side channel, full curve]"
15,COc1ccc(CNCCc2c[nH]c3ccccc23)c(OC)c1C,"inconclusive: 11.2 µM [fluorescent, side channel, partial curve, poor fit]"
16,CCOCCCn1c(N)c(C(=O)Nc2sc3c(c2C(=O)OC)CCCC3)c2nc3ccccc3nc21,"inconclusive: 39.8 µM [quencher, side channel, partial curve]"
17,CN1C(=O)C(=Cc2cn(CC#N)c3ccccc23)C(=O)N(C)C1=O,"inconclusive: 25.1 µM [quencher, side channel, single point]"
18,O=C1C(=O)c2ccccc2-c2ccccc21,"inconclusive: 8.91 µM [quencher, side channel, partial curve]"
